The campaign covered roughly 310,000 compounds. About 2,200 (0.71%) showed an effect of 50% or more. The effect is printed as a negative number. The list shows a part of the results.
target: human ether-à-go-go-related gene (hERG) potassium channel (human, UniProt Q12809); assay: primary screen, population patch clamp on CHO cells stably expressing hERG
Sequence (Q12809 whole entry, looked up): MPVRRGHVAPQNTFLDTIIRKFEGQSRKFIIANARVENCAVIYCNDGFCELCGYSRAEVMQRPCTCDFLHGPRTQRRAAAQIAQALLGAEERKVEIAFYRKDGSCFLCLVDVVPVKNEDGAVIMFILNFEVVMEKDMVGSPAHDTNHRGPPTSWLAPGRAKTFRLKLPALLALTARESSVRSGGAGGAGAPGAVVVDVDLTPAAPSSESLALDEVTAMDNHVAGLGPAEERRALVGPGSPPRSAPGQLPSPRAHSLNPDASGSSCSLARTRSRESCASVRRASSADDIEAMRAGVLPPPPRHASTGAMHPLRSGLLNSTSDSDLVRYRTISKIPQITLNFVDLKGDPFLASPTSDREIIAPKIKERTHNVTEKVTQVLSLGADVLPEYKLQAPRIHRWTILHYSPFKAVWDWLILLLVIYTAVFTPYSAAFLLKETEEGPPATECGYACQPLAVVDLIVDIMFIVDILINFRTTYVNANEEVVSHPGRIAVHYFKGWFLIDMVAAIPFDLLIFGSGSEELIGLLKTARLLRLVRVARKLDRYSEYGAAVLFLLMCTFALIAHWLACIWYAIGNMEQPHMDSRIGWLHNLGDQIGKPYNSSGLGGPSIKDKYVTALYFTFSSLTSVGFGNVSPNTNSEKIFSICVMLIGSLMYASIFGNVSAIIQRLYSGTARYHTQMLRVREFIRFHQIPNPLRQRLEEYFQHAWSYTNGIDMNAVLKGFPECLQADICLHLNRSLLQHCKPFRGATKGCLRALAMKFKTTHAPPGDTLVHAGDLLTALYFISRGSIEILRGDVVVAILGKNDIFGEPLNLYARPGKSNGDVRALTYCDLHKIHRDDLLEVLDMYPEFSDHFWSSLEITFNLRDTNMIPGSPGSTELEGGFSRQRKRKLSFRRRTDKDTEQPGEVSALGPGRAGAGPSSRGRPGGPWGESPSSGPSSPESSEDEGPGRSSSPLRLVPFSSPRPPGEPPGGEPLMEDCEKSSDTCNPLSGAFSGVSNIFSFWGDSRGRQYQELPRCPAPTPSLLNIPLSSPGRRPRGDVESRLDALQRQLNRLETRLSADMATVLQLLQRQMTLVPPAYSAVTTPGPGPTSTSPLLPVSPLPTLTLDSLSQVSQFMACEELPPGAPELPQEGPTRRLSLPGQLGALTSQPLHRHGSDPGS

Compound	hERG current change (%, negative = inhibition) at 1uM [%]
O=C(NC1CCC(=O)N(CCSc2ccccc2)CC1)OCc1ccccc1 (stereo not shown)	-4.41
O=C(N/N=C/c1ccc([N+](=O)[O-])cc1)c1ccc2nc[nH]c2c1	14
CC(C)Cn1c(CCCNC(=O)c2ccc(F)cc2)nc2ccccc21	-4.62
CN(C)CCN1C(=O)C(O)=C(C(=O)c2cc3ccccc3o2)C1c1cccc(Br)c1 (stereo not shown)	19.9
Cc1cccc(Nc2nc(N)c([N+](=O)[O-])c(N3CCOCC3)n2)c1	-15.5
COC(CNC(=O)C1CCN(C(=O)c2cc3oc(C)cc3n2Cc2c(F)cccc2Cl)CC1)OC	16.8
CCOc1ccccc1C(=O)N1CCN(C(c2ccccc2)c2ccccc2)CC1	10.4
O=[N+]([O-])c1ccc(N2CCN(S(=O)(=O)c3ccc(Cl)c(Cl)c3)CC2)cc1NCCN1CCOCC1	8.57
Cc1ccc(N(CC(=O)N/N=C/c2ccco2)S(=O)(=O)c2ccccc2)cc1	7.77
CCCCC(c1nnnn1Cc1ccco1)N1CCN(C(=O)c2ccco2)CC1.Cl (stereo not shown)	-13.5
CC12CN(C(=O)c3cccc([N+](=O)[O-])c3)C3(C#N)CC1CCC23C (stereo not shown)	13.9
COc1ccc(OC)c(N2C(=O)CC(C(C)c3ccccc3)C2=O)c1 (stereo not shown)	18
CCOc1ccc2nc(N(CCN(C)C)C(=O)c3cc4ccccc4cc3OC)sc2c1.Cl	-0.416
Cc1ccc2c(=O)c(C(=O)c3ccc(F)cc3)cn(CC(=O)NCc3ccco3)c2n1	13.1
O=C(c1cccc(OC(F)F)c1)N1CCN(c2ncccn2)CC1	12.4
Nc1nc(Nc2ccccc2F)nc(N2CCOCC2)c1[N+](=O)[O-]	15.7
CCN(CC(=O)Nc1ccc2c(c1)OCCO2)S(=O)(=O)c1ccccc1	18.8
CCOC(=O)CN1CC23C=CC(O2)C(C(=O)NC2CCCCCC2)C3C1=O (stereo not shown)	-3.67
Cc1nccn1CC(O)COc1ccccc1 (stereo not shown)	9.26
COc1cc(C2C(C#N)=C(N)N(Nc3ccccc3)C3=C2C(=O)CC(C)(C)C3)ccc1OCc1cccc(F)c1 (stereo not shown)	23.8
Cc1ccc(S(=O)(=O)N2CCOCC2)cc1C(=O)NC(=S)N1CC(C)OC(C)C1 (stereo not shown)	16.8
Cc1ccc2oc(C(=O)NCC3CCOCC3)c(C)c2c1	10.3
COc1cccc(-c2nc(NCc3ccco3)c3ccccc3n2)c1O	7.26
CCOC(=O)c1cccc(NC(=O)CS(=O)(=O)Cc2nc(-c3cccc(OC)c3)oc2C)c1	0.17
O=C1OCc2cc(NC(=O)C3CCCCC3)ccc21	19
CCC(=O)Nc1ccccc1C(=O)C(=O)Nc1ccccc1	2.64
Cc1ccc(-c2nn(Cc3ccccc3)cc2C(=O)O)cc1	13.1
Cc1ccc(C(=O)O/N=C(\N)c2nonc2N)cc1	11.2

Compound	hERG current change (%, negative = inhibition) at 1uM [%]
Oc1ccc(-c2n[nH]c(C(F)(F)F)c2-c2ccccc2)c(O)c1	8.98
Cc1cccc(N2CCN(C(=O)CCNS(=O)(=O)c3ccc4c(c3)CCC(=O)N4)CC2)c1C	-10.2
Cc1ccc(S(=O)(=O)N2CCN(CC(O)c3ccccc3)CC2)cc1C (stereo not shown)	1.05
O=C(Nc1ccc(NC(=O)C23CC4CC(CC(C4)C2)C3)cc1)c1cc(F)c(F)cc1Cl	5.06
CCn1c(SCC(=O)Nc2ccc(OC)cc2)nc2nc3c(cc2c1=O)COC(C)(C)C3	-32.8
O=C(N/C(=C/c1ccccc1F)C(=O)N1CCCCC1)c1ccccc1	-3.53
COc1ccc(NC(=O)C(=O)NCCC2CCCCN2S(=O)(=O)c2ccc(F)cc2)cc1 (stereo not shown)	10.3
CCOC(=O)c1c(C)[nH]c(C(=O)OCC(=O)Nc2ccc(OC)c(Cl)c2)c1C	19.9
COc1cccc(N=Nc2c(N)[nH]n3c(=O)cc(-c4ccccc4)nc23)c1	-6.89
Cc1nn(Cc2ccccc2)c2sc(C(=O)N3CCN(Cc4ccc5c(c4)OCO5)CC3)cc12.Cl	9.2
Cn1c(SC/C=C/c2ccccc2)nnc1-c1ccco1	11.5
CCC1(C)Cc2c(sc3nnn(CC(=O)Nc4ccc(Cl)cc4)c(=O)c23)CO1 (stereo not shown)	13.9
COc1ccc2[nH]c(O)c(N=O)c2c1	4.67
O=C1CC(c2cccc(Br)c2)c2cc3c(cc2N1)CCC3 (stereo not shown)	8.78
CCOc1ccc(NC(=O)CSc2ccccc2N)cc1	8.44
CCOc1cc(C=C(C(=O)OC)C(=O)OC)ccc1OCc1ccc([N+](=O)[O-])cc1	11.6
COc1ccc(CCCc2n[nH]c(=S)o2)cc1C	13.6
O=C(CSc1nnc(-c2ccncc2)o1)N1CCc2ccccc2C1	-19.2
COc1ccc2[nH]cc(/C=C(/C#N)S(=O)(=O)c3ccccc3)c2c1	7.93
Clc1cncc(Cl)c1NNc1c2ccccc2nc2ccccc12	11.8
O=C(CN1C(=O)NC2(CCCC2)C1=O)NNC(=O)c1ccc(F)cc1	18
Cc1ccc(C(=O)Nc2ccccc2C(N)=O)o1	-3.84
CCOC(=O)CCc1c(C)nc2cc(-c3ccc(F)cc3)[nH]n2c1=O	8.2
COc1cccc(/C=N\NC(=O)c2cc(OCC(F)(F)F)ccc2OCC(F)(F)F)c1	7.83
O=P(CCNCc1ccco1)(c1ccccc1)c1ccccc1	8.04
CC(NCC(=O)NC(=O)NC1CCCC1)c1ccc(Cl)cc1Cl (stereo not shown)	-10.2
Clc1ccc(Cl)c2sc(N3CCOCC3)nc12	10.1

From publication PMC4336329 (PLoS ONE, 2015)
